Measured values as given in PubChem BioAssay (NCATS).
Inconclusive means that the source gave no clear call. Such entries were picked first, then a sample of the others. A potency beside an inconclusive call is a rough fit, not a confirmed value. Active and inactive are the calls of the source. Calls come from the whole dose curve; as a rule, active = well fitted inhibition curve with a large enough effect; inconclusive = small, poorly fitted or top-dose-only effect; inactive = no such curve, though single readings can be large or run the other way.

assay: qHTS for Inhibitors of ATXN expression: Validation (AID 588378); details: cell-based ATXN2 expression reporter assay, luminescence; series mostly up to 57.1 µM; activity change, negative = inhibition: at the top concentration; note: nearly all actives have a fitted effect of over 75% in size
Text: Spinocerebellar ataxia type 2 (SCA2) is a multisystem neurodegenerative disease caused by a dominantly-acting mutation leading to expansion of a polyQ domain in the ataxin-2 protein (ATXN2). SCA2 patients develop progressive ataxia and later lose function in other neuronal systems. Prominent parkinsonian signs develop in some patients. Similar to many neurodegenerative disorders, no symptomatic or disease-modifying treatments are known.
The primary objective of project is to identify compounds inhibiting ATXN2 expression and to test them for efficacy in SCA2 mouse models. To this end, in a collaboration between Dr. Daniel Scoles and scientists at NCGC, a cell-based assay adapted to high-throughput screening has been developed to screen the NIH Molecular Libraries Small Molecule Repository (MLSMR).
NIH Chemical Genomics Center [NCGC]
NIH Molecular Libraries Probe Centers Network [MLPCN]
Assay Submitter (PI): Stefan Pulst and Daniel Scoles, University of Utah
4 ul of HEK293-ATXN2-FFLuc cell suspension (TBD cells/microL in phenol-red free DMEM) are dispensed into Greiner white solid bottom 1536-well assay plates, yielding a final well density of TBD cells/well. Plates are incubated for 2 hrs at 37 degrees C in 5% humidified CO2 to allow cell attachment. Compounds are then transferred via Kalypsys pin tool equipped with 1536-pin array (10nl slotted pins, V&P Scientific, San Diego, CA). In addition, duplicate serial dilutions of the control compounds ChemBridge 5553825, a previously identified ATXN2 expression inhibitor, and a known luciferase inhibitor, are pin-transferred. After incubation at 37 degrees C in 5% humidified CO2 for 24 hrs, CellTiter-Fluor reagent (1 ul) (Promega, Madison, WI) is then added and plates are incubated for 30 minutes, before being transferred to a ViewLux high-throughput CCD imager (PerkinElmer), wherein single end-point fluorescence measurements are acquired using the 405 nm excitation/525 nm emission filter set to assess cell viability. Next, Bright-Glo luciferase substrate detection reagent (3 ul) (Promega, Madison, WI) is added to each well and incubated for an additional 5 minutes. Luminescence is then measured on the ViewLux imager equipped with a clear emission filter using a 2 sec exposure.
% is set by controls: 0 for no effect and ±100 for the full control effect; potency is the fitted concentration of half-maximal effect; tags give direction and shape of the fitted curve.

Compound	Potency	activity change, negative = inhibition
Clc1ccc2c(c1)N=C(N1CCNCC1)c1ccccc1N2	active: 12.6 µM	–
COC(=O)C1=C(C)NC(C)=C(C(=O)OC(C)(C)CN(C)CCC(c2ccccc2)c2ccccc2)C1c1cccc([N+](=O)[O-])c1 (configuration not stated)	inconclusive: 20 µM [inhibitor, partial curve, poor fit]	–
Cc1nc2ccccn2c(=O)c1CCN1CCC(C(=O)c2ccc(F)cc2)CC1	–	inactive: -19.1%
Nc1ncnc2n[nH]c(Nc3ccc(F)cc3)c12	inconclusive: 25.1 µM [inhibitor, single point]	–
COc1ccccc1N1CCN(CCN2C(=O)CC3(CCCC3)CC2=O)CC1	–	inactive: -8.71%
CCN(CC)CC#CCOC(=O)C(O)(c1ccccc1)C1CCCCC1 (configuration not stated)	–	inactive: -23.5%
CC1=C(C)C(=O)C(CCCCC#CCCCC#CCO)=C(C)C1=O	active: 20 µM	–
Cc1ccccc1N1C(=O)c2cc(S(N)(=O)=O)c(Cl)cc2NC1C (configuration not stated)	–	inactive: -10.8%
OCCN1CCN(CC/C=C2/c3ccccc3Sc3ccc(C(F)(F)F)cc32)CC1	active: 17.8 µM	–
CN(C)CCCN1c2ccccc2Sc2ccccc21	inconclusive: 17.8 µM [inhibitor, partial curve]	–
CCCN1C[C@H](CSC)C[C@@H]2c3cccc4[nH]cc(c34)C[C@H]21	–	inactive: -17%
Cc1cc(N)c2ccccc2[n+]1CCCCCCCCCC[n+]1c(C)cc(N)c2ccccc21	inconclusive: 15.8 µM [inhibitor, partial curve]	–
NCCc1ccc(O)c(O)c1	inconclusive: 22.4 µM [inhibitor, partial curve, poor fit]	–
CNCCCN1c2ccccc2CCc2ccccc21	inconclusive: 14.1 µM [inhibitor, partial curve, poor fit]	–
CC1=C(/C=C/C(C)=C/C=C/C(C)=C/C(=O)Nc2ccc(O)cc2)C(C)(C)CCC1	active: 31.6 µM	–
CCN(CC)CCNC(=O)c1ccc(NC(C)=O)cc1	–	inactive: 25.6%
Cc1nc2sccn2c(=O)c1CCN1CCC(=C(c2ccc(F)cc2)c2ccc(F)cc2)CC1	inconclusive: 12.6 µM [inhibitor, partial curve, poor fit]	–
c1cc(CN2CCCCC2)cc(OCCCNc2nc3ccccc3s2)c1	inconclusive: 12.6 µM [inhibitor, partial curve, poor fit]	–
Nc1nc(N)c2nc(-c3ccccc3)c(N)nc2n1	–	inactive: 21.8%
CN1CCN(C2=Nc3ccccc3Oc3ccc(Cl)cc32)CC1	inconclusive: 28.2 µM [inhibitor, single point]	–
CN[C@H]1CC[C@@H](c2ccc(Cl)c(Cl)c2)c2ccccc21	active: 14.1 µM	–
OC(CCN1CCCCC1)(c1ccccc1)C1CCCCC1 (configuration not stated)	inconclusive: 39.8 µM [inhibitor, single point]	–
